Laboratory results from PubChem BioAssay AID1347073 (National Center for Advancing Translational Sciences (NCATS), 2019).
Out of some 45,000 compounds screened, about 200 (0.44%) were called active. The shares of active, inactive and inconclusive entries below differ from those in the screen. The call rests on the fitted dose curve; in most records, active means well fitted activation curve with a large enough effect; inconclusive means small, poorly fitted or top-dose-only effect; inactive means no such curve, though single readings can be large or run the other way. Potencies beside an inconclusive call are fits to weak or partial responses and may not hold up.
Potency means the concentration at half of the fitted maximal effect; tags describe the fitted curve by direction and shape.

Assay: qHTS of TDP-43 Inhibitors: NCGC Sytravon Library Screen; further: nearly all actives have a fitted effect of over 55% in size; on growth rescue (activation): 0% is about no effect
Conditions: yeast TDP-43 toxicity rescue, BacTiter-Glo growth, 24 h; growth rescue (activation): at 46.1 µM (top of the series)
Outline: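 TDP-43-expressing yeast, pregrown in raffinose, seeded at OD600 0.02 in galactose medium with compound for 24 hr at 30 deg C. Growth read by BacTiter-Glo luminescence, so rescue of toxicity appears as activation.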
For `CCOC(=O)C1CCN(C(=O)CSc2ccc(Br)cc2)CC1`, the Potency was inconclusive: 10 µM [activator, partial curve, poor fit]. With `Cc1nc(CNC(=O)c2cc(COc3c(F)cccc3F)on2)cs1` the Potency was inconclusive: 20 µM [activator, single point]. For `Cc1ccc(S(=O)(=O)N[C@H](C(=O)OCC(=O)NC(=O)c2cccn2C)C(C)C)cc1`, the Potency was “inactive”. For `CCc1ccc(CN2CCC(n3nccc3NC(=O)C3CCCC3)CC2)cc1`, the Potency was “inactive”. For `Cc1ccc(S(=O)(=O)N2CCOCC2)cc1C(=O)N1CCN(Cc2ccccc2)CC1`, the Potency was “inactive”. With `CSC(=S)N/N=C/c1ccc(N(C)C)cc1` the Potency was inconclusive: 12.6 µM [activator, partial curve, poor fit]. With `O=S(=O)(c1cccc(-c2nnc(SCc3nc4ccccc4s3)o2)c1)N1CCOCC1` the Potency was inconclusive: 7.08 µM [activator, partial curve, poor fit]. For `O=C(NNC1=C(C(=O)C(F)(F)F)CCC1)c1ccccc1Cl`, the Potency was inconclusive: 35.5 µM [activator, partial curve, poor fit]. With `COc1ccc(CCNC(=O)CSc2nc3cc(Cl)ccc3o2)cc1OC` the Potency was inconclusive: 11.2 µM [activator, partial curve, poor fit]. In the case of `Cc1ccc(C)c(S(=O)(=O)N2CCN(c3ncnc4sccc34)CC2)c1`, the Potency is reported as active: 11.2 µM. With `CCOC(=O)c1c(NC(C)=O)c2c3c(sc2n1Cc1nc(-c2ccccc2OCC)oc1C)CCCC3` the Potency was “inactive”. For `O=C(Nc1ccc(-c2cc(C(F)(F)F)nn2-c2ccccc2)cc1)c1cccc(F)c1`, the Potency was “inactive”. For `Brc1ccccc1-n1ncc2c1ncn1nc(Cc3ccccc3)nc21`, the Potency was inconclusive: 11.2 µM [activator, partial curve, poor fit]. With `O=C(c1cn(-c2ccccc2)nc1-c1ccc(F)cc1)N1CCCCC1` the Potency was inconclusive: 35.5 µM [activator, single point]. With `COc1cccc(Oc2nc(N)ncc2[N+](=O)[O-])c1` the Potency was inconclusive: 31.6 µM [activator, partial curve, poor fit]. With `CC(C)=C1SC(N2CCN(c3cccc(Cl)c3)CC2)=NC1=O` the Potency was inconclusive: 17.8 µM [activator, single point]. In the case of `CC(O)c1c(OCc2ccccc2)ncnc1OCc1ccccc1` (stereo unspecified), the Potency is reported as inconclusive: 11.2 µM [activator, partial curve, poor fit]. With `Cn1c(C(O)c2ccc(Br)cc2)nc(Cl)c1Cl` (stereo unspecified) the Potency was inconclusive: 20 µM [activator, single point]. With `COc1ccc(NC(=O)c2cc(-c3cc(F)ccc3OC(C)C)n[nH]2)c(C)c1` the growth rescue (activation) was inconclusive: 120% [activator]. For `NC(=O)c1ccccc1OCCOc1ccc(Br)cc1`, the Potency was inconclusive: 11.2 µM [activator, partial curve, poor fit]. For `CCOc1ccccc1NC(=O)N1CCC2(CC1)Oc1ccccc1C(=O)N2Cc1ccccc1F`, the Potency was “inactive”. For `Cc1noc2ncnc(Oc3ccccc3Cl)c12`, the Potency was inconclusive: 4.47 µM [activator, partial curve, poor fit]. In the case of `CC(C)CNC(=S)NC(=O)c1ccc(F)cc1`, the Potency is reported as inconclusive: 11.2 µM [activator, partial curve, poor fit]. With `O=C(Nc1ccc(C(F)(F)F)cc1)C(Cc1ccccc1)n1cccc1` (stereo unspecified) the Potency was “inactive”. For `O=C(CSc1nnc(NC(=O)c2ccc(F)cc2F)s1)NC1CC1`, the Potency was “inactive”. With `CCOc1ccccc1N1CCN(C(=O)CCCN2C(=O)c3cccc4cccc(c34)C2=O)CC1` the Potency was inconclusive: 25.1 µM [activator, single point]. With `COc1cc(NC(=O)C(Cc2ccccc2)n2cccc2)cc(OC)c1` (stereo unspecified) the Potency was inconclusive: 14.1 µM [activator, partial curve, poor fit]. With `CC(C)CC(=O)NC(=S)Nc1ccc(N2CCOCC2)c(Cl)c1` the Potency was inconclusive: 35.5 µM [activator, partial curve, poor fit]. With `O/N=C/c1ccc(OCc2ccccc2F)c(Cl)c1` the Potency was inconclusive: 8.91 µM [activator, partial curve, poor fit]. For `CCCc1cc(-n2ccnc2C)n2c(nc3ccccc32)c1C#N`, the Potency was inconclusive: 35.5 µM [activator, single point]. In the case of `CC(C)CC(=O)NC(=S)NNC(=O)c1ccc(NC(=O)C2CCCCC2)cc1`, the Potency is reported as inconclusive: 15.8 µM [activator, partial curve, poor fit]. In the case of `Cc1ccc(NC2=Nc3ccccc3N3C2=Nc2c(c(C)nn2-c2ccccc2)C3c2ccc(O)c(O)c2)cc1` (stereo unspecified), the Potency is reported as inconclusive: 17.8 µM [activator, partial curve, poor fit]. With `COc1ccc(S(=O)(=O)N(C(=O)c2ccncc2)c2ccc(OC(=O)c3ccncc3)cc2)cc1` the Potency was inconclusive: 6.31 µM [activator, single point]. In the case of `COc1ccc2nc(SCCC(=O)O)cc(C)c2c1`, the Potency is reported as inconclusive: 11.2 µM [activator, partial curve, poor fit]. For `Cn1c(SCc2ccc(Br)cc2)nnc1-c1ccccn1`, the Potency was inconclusive: 14.1 µM [activator, single point]. With `CC(=O)c1cccc(NC(=S)NC(=O)c2cccc(Cl)c2)c1` the Potency was inconclusive: 11.2 µM [activator, partial curve]. With `O=C(Nc1ccc(Cl)cc1)C1Cc2c(-c3ccc4c(c3)OCO4)ccnc2O1` (stereo unspecified) the growth rescue (activation) was inconclusive: 97.9% [activator]. For `COc1ccccc1NC(=O)c1ccc(-n2cccn2)c([N+](=O)[O-])c1`, the Potency was inconclusive: 17.8 µM [activator, partial curve, poor fit]. For `COc1ccccc1NC(=O)c1cc(Cl)nc2ccccc12`, the Potency was inconclusive: 14.1 µM [activator, partial curve, poor fit]. With `CCOC(=O)/C=C/C(=O)OCC(=O)Nc1c(Cl)cccc1Cl` the Potency was inconclusive: 35.5 µM [activator, single point]. In the case of `COc1ccc(CSCC(=O)Nc2ccc(S(=O)(=O)N3CCCCCC3)cc2)cc1`, the Potency is reported as inconclusive: 35.5 µM [activator, partial curve, poor fit]. For `Clc1cccc(CNc2ccn3nc(-c4ccccc4Cl)cc3n2)c1`, the Potency was inconclusive: 17.8 µM [activator, single point]. With `CCCCNC(=S)N(C)/N=C/c1ccc(F)cc1` the Potency was inconclusive: 25.1 µM [activator, single point]. In the case of `CCN(CC)CCCN1C(=O)C(=O)/C(=C(/O)c2ccc(OC)cc2)C1c1ccco1` (stereo unspecified), the Potency is reported as inconclusive: 35.5 µM [activator, single point]. For `O=C(O)CSc1nc2ccccc2nc1Cc1ccccc1F`, the Potency was inconclusive: 7.08 µM [activator, partial curve]. With `CCOc1ncccc1C(=O)OCC(=O)Nc1ccc2c(c1)CCC2` the Potency was inconclusive: 35.5 µM [activator, single point]. In the case of `C=C(C)CNC(=S)N/N=C/c1ccco1`, the Potency is reported as inconclusive: 20 µM [activator, partial curve, poor fit]. For `CCCCN(C)CCC(=O)Nc1ccc(C)cc1`, the Potency was “inactive”. With `CN(C)c1ccc(-c2csc(C(O)c3cccc(Cl)c3)n2)cc1` (stereo unspecified) the Potency was inconclusive: 17.8 µM [activator, single point]. For `O=C(Cc1ccccc1)NCCSCc1ccccc1`, the Potency was inconclusive: 12.6 µM [activator, partial curve, poor fit]. For `Cc1ccc(NC(=O)CSc2nnc(CNC(=O)c3ccccc3F)o2)cc1`, the Potency was “inactive”. In the case of `COc1ccc(CSc2cccc3cccnc23)cc1[N+](=O)[O-]`, the Potency is reported as inconclusive: 10 µM [activator, partial curve]. For `C/C(=N\OCC(=O)Nc1cc(C)cc(C)c1)c1ccc2c(c1)OCCO2`, the Potency was inconclusive: 35.5 µM [activator, partial curve, poor fit]. For `COc1ccc(NC(=O)C2Cc3c(-c4ccc5c(c4)OCO5)ccnc3O2)cc1` (stereo unspecified), the growth rescue (activation) was inconclusive: 161% [activator]. For `COc1cccc(N/N=C/c2cccc(Br)c2O)c1`, the Potency was inconclusive: 22.4 µM [activator, single point]. With `CSc1nnc(-c2sccc2-n2cccc2)o1` the Potency was inconclusive: 11.2 µM [activator, partial curve, poor fit]. In the case of `O=C(COc1ccc2ccccc2c1)NNC(=O)C(=O)Nc1ccccc1`, the Potency is reported as “inactive”. For `Cc1nnsc1C(=O)N1CCC(CO)(Cc2ccccc2Cl)CC1`, the Potency was inconclusive: 20 µM [activator, partial curve, poor fit]. For `S=c1[nH]nc(-c2ccco2)n1/N=C/C(Cl)=C/c1ccccc1`, the Potency was inconclusive: 12.6 µM [activator, partial curve, poor fit]. For `O=C(COC(=O)c1ccccc1Cl)NC1CCCCCCC1`, the Potency was inconclusive: 28.2 µM [activator, partial curve, poor fit]. In the case of `CC1CCN(CC(C)OC(=O)c2ccco2)CC1` (stereo unspecified), the Potency is reported as “inactive”. In the case of `FC(F)(F)Oc1ccc(NC(=S)NCCCN2CCOCC2)cc1`, the Potency is reported as “inactive”. With `COc1cccc(C(C)(O)c2nc(-c3ccccc3C)cs2)c1` (stereo unspecified) the growth rescue (activation) was inconclusive: 108% [activator]. With `O=C(NCC1CCCO1)C(c1ccccn1)N(Cc1ccccc1Cl)C(=O)CN1C(=O)c2ccccc2S1(=O)=O` (stereo unspecified) the Potency was “inactive”. For `COc1ccc(N2CCN(c3ccc(C(=O)O)cc3[N+](=O)[O-])CC2)cc1`, the Potency was inconclusive: 20 µM [activator, partial curve, poor fit]. With `COc1ccc(N2CCOCC2)c(NC(=O)c2ccc(Br)o2)c1` the Potency was active: 15.8 µM.
